Test results as given in PubChem BioAssay AID759 (NMMLSC, 2007).
Out of some 190,000 compounds screened, about 270 (0.14%) were called active. Inconclusive results, whose numbers are uncertain, are shown with a selection of clear calls.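 How the source made its calls: active means GTP binding activity at least 20% away from the 100% baseline, either lowered as inhibitor or raised as activator; inconclusive means flagged as likely green fluorescent, judged across all proteins in the well; inactive means the rest.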

molecular target: GTPase HRas (Homo sapiens) (UniProt P01112); assay: HRas wt fluorescent GTP binding changes, either direction – biochemical, wildtype, bead-based flow cytometry, multiplex, primary screen (AID 759); details: GST-Ras wt beads, Bodipy-FL-GTP binding, at 10 µM, actives lie on both sides;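 further: 0% = unlabeled GTP competition control and 100% = no-compound control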
Chain of UniProt P01112 (P01112 whole entry, looked up): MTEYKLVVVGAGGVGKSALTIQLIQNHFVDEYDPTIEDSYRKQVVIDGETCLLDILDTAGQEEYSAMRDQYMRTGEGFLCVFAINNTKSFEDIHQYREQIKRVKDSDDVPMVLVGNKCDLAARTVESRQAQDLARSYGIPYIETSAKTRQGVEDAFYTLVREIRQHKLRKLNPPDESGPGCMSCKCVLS

SMILES | GTP binding activity
COCCOC(=O)C1=C(C)N=C2SCCC(=O)N2C1c1ccc(OC(=O)c2ccco2)cc1 (stereo not drawn) | inactive: 102%
O=C(COC(=O)c1ccccc1C(=O)c1ccc(Cl)cc1)NCC1CCCO1 (stereo not drawn) | inconclusive: 95%
CCCCCCn1cnc2c(c1=O)c1nc3ccccc3nc1n2/N=C/c1ccco1 | inconclusive: 95%
CN=c1scc(-c2ccccc2F)n1/N=C(\C)c1cccnc1 | inactive: 99%
COc1ccc(-c2cc(=O)c3c(OC)c(OC)c(OC)c(OC)c3o2)cc1OC | inconclusive: 95%
CCOC(=O)C(C)Sc1nc(=O)n2cc(C)ccc2n1 (stereo not drawn) | inconclusive: 97%
COc1ccc(CCn2c(SCCN3CCCCC3)nc3ccccc3c2=O)cc1OC | inactive: 93%
COC(=O)NCc1ccc(CNC(=O)OC)cc1 | inconclusive: 106%
Cc1nn(Cc2ccccc2Cl)c(Cl)c1C(=O)NCCc1ccccc1 | inconclusive: 100%
CCCc1cc(=O)oc2cc(C)cc(OC(=O)c3ccco3)c12 | inconclusive: 95%
CC1CCN(c2ncccc2C(=O)O)CC1 | active: 128% [activator]
COC(=O)C(=C/C(C)=C/c1cccnc1)C(=O)OC | inactive: 97%
CN1C(=O)NC(c2ccc(O)cc2)C2=C1CN(c1cccc3ccccc13)C2=O (stereo not drawn) | inconclusive: 94%
Cc1occc1C(=O)NNC(=O)c1ccc(Br)o1 | inactive: 97%
CC(=O)OC(C(=O)NC1CCCCC1)c1ccc(Cl)c(Cl)c1 (stereo not drawn) | active: 35%
CCN(CC)CCCN(Cc1cc2cc(OC)c(OC)cc2[nH]c1=O)C(=O)Nc1ccccc1 | inconclusive: 101%
OC(CN1CCN(Cc2ccc3c(c2)OCO3)CC1)c1c[nH]c2ccccc12 (stereo not drawn) | inactive: 107%
CCOc1nnc(C)c2c(C)n(-c3cccc(Cl)c3)nc12 | inconclusive: 140%
C=CCNC(=O)COC(=O)c1ccc(C)c(NC(=O)c2ccco2)c1 | inconclusive: 91%
CC(C)(C)NC(=O)C1CCN(S(=O)(=O)c2cccc(C(F)(F)F)c2)CC1 | inactive: 96%

SMILES | GTP binding activity
CCN1/C(=C\C=C2\C(=O)N(c3ccccc3)C(=S)N2C)Sc2ccccc21 | active: 78%
CCOCCOC(NC(=O)c1ccccc1)(C(F)(F)F)C(F)(F)F | inactive: 101%
O=C(NC(NC(=S)Nc1ccccc1C(=O)O)C(Cl)(Cl)Cl)c1ccco1 (stereo not drawn) | inconclusive: 90%
CC(Nc1cc(N2CCN(S(=O)(=O)N(C)C)CC2)ccc1[N+](=O)[O-])c1ccccc1 (stereo not drawn) | inconclusive: 96%
Cc1ccc(Nc2nc(N)c(C#N)c(CC#N)c2C#N)cc1 | inconclusive: 47%
COC(=O)c1c(NC(=O)C2CC2)sc(C(=O)Nc2ccccc2)c1C | inconclusive: 96%
COc1ccc(/C=C/C(=O)NC(=S)Nc2cc3oc4ccccc4c3cc2OC)cc1 | inconclusive: 103%
Cc1cc2cc(C)c(NCCNC(=O)c3ccccc3Cl)nc2cc1C | inconclusive: 93%
O=C(COC(=O)c1ccc2c(c1[N+](=O)[O-])C(=O)c1ccccc1C2=O)NC1CC1 | active: 76%
Cc1ccc(Nc2cnn(C34CC5CC(CC(CC(=O)O)(C5)C3)C4)c(=O)c2Cl)c(Cl)c1 | inactive: 97%
Cc1c(C(c2ccccc2O)c2c(C)n(C)n(-c3ccccc3)c2=O)c(=O)n(-c2ccccc2)n1C | inconclusive: 92%
O=C(c1cc2nc(-c3ccc(Cl)cc3)cc(C(F)(F)F)n2n1)N1CCOCC1 | inactive: 93%
COc1cc(N2CCCC2)c(OC)cc1/C=C(/C#N)c1cccc(F)c1 | inconclusive: 140%
CCOC(=O)C1(Cc2ccccc2C(F)(F)F)CCN(C2CCN(C(C)C)CC2)CC1 | inactive: 99%
O=C(C[n+]1ccccc1)N/N=C/c1ccc(F)cc1 | inactive: 96%
COc1cccc(NC(=O)c2ccc3c(SCC(=O)O)c4c(nc3c2)CCCC4)c1 | inconclusive: 86%
O=C(CCCCn1c(=S)[nH]c2ccsc2c1=O)NCc1ccc2c(c1)OCO2 | inconclusive: 92%
O=C(CCNC(=O)c1ccccc1)N=Nc1c(O)[nH]c2ccccc12 | inconclusive: 94%
COc1cc(NC(=O)C2CCN(S(=O)(=O)c3cnc[nH]3)CC2)cc(OC)c1OC | inconclusive: 104%
Cc1csc(N(C(=O)Cc2ccccc2F)c2ccccc2)n1 | inconclusive: 100%

SMILES | GTP binding activity
COc1ccc(/C=C/c2nc3cc(-c4ccccc4)ccc3o2)cc1O | inconclusive: 96%
COc1ccc(NC(=O)CSc2nnc(C3CC3)n2N)cc1 | inconclusive: 105%
Cc1ccc(N2C(=O)CC(Sc3ccccc3C(=O)O)C2=O)cc1C (stereo not drawn) | inactive: 94%
CCOC(=O)c1cnc(-n2[nH]c(C)cc2=O)[nH]c1=O | inconclusive: 93%
O=C1CC(C2CCCO2)C(=O)N1c1ccc(Cl)c(Cl)c1 (stereo not drawn) | inactive: 99%
CC(C)(C)NC(=O)CSc1nc(N)c(-c2ccccc2)c(=O)[nH]1 | inconclusive: 95%
COc1cccc(-c2cc(C(F)(F)F)nc(-n3ccc([N+](=O)[O-])n3)n2)c1 | inconclusive: 92%
O=C(O)c1cccc(NC(=S)N/N=C/c2cccc(O)c2)c1 | inconclusive: 91%
CCOCC(=O)Nc1nnc(C2CCCCC2)s1 | inconclusive: 102%
O=C(CN1CCOCC1)Nc1ccccc1NC(=O)C1CCN(c2ncccn2)CC1 | inconclusive: 100%
Cn1c(N)c(C(=O)NCc2ccccc2)sc1=S | inconclusive: 101%
COC(=O)CSc1ccc2nnc(-c3ccc(F)cc3)n2n1 | inconclusive: 113%
O=C(CCC(=O)N(CC(=O)NC1CCCC1)Cc1cccs1)Nc1nccs1 | inactive: 99%
Cc1nn(-c2ccc(F)cc2)c(Cl)c1/C=C(\CCC(=O)O)c1nc2ccccc2s1 | inactive: 80%
Cc1occc1C(=O)NCc1ccccn1 | inconclusive: 105%
COC(=O)c1c(NC(=O)/C=C/C(=O)O)sc(C)c1-c1ccc(C)c(C)c1 | inconclusive: 95%
COc1ccc(N(CC(=O)Nc2ccccc2C(=O)NCCc2ccccc2)S(C)(=O)=O)cc1OC | inactive: 103%
c1ccc(CNC2=NCCC2)nc1 | inconclusive: 108%
